Laboratory results published in ChEMBL document CHEMBL1201862, “PubChem BioAssay data set” (2004).
Where a name gives a salt, the structure may show the parent alone.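 Growth conditions: 96-well plates. Treatment: test compound, 48 hours, 5 concentrations. Analysis: linear interpolation between bracketing concentrations; unreached endpoints set to highest concentration. Abbreviation: GI50, concentration required for 50% inhibition of growth.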 Active and inactive are the calls of the source. No stated cut-off is given here; in the data, active = GI50 up to about 1.1 µM and inactive = higher.

What follows are compounds tested on NCI-H322M (assay: NCI anticancer screen, dose series, 48 h).
For `NC(=O)NC1NC(=O)NC1=O` (configuration not stated) [ALLANTOIN], the GI50 was inactive: > 100 µM.
In the case of `O=C(O)CCC(=O)C(=O)O` [ALPHA-KETOGLUTARIC ACID], the GI50 is reported as inactive: > 100 µM.
With `COC(=O)C1=CO[C@@H](C)[C@@H]2Cn3ccc4c5ccccc5nc-4c3C[C@H]12` [ALSTONINE HYDROCHLORIDE] the GI50 was inactive: > 100 µM.
`Cc1cc(O)cc2oc(=O)c3c(O)cc(O)cc3c12` [ALTERNARIOL] was tested, and the GI50 was inactive: 27.1 µM.
`CN(C)c1nc(N(C)C)nc(N(C)C)n1` [ALTRETAMINE] was tested, and the GI50 was inactive: > 150 µM.
`C[C@@]1(c2ccccc2)O[C@@H]2C[C@H]3[C@@H]4CCC5=CC(=O)C=C[C@]5(C)[C@@]4(F)[C@@H](O)C[C@]3(C)[C@]2(C(=O)CO)O1` [AMCINAFIDE] was tested, and the GI50 was inactive: 17.5 µM.
In the case of `NCCCNCCSP(=O)(O)O` [AMIFOSTINE], the GI50 is reported as inactive: > 750 µM.
`NCCO/C=C/C(N)C(=O)O` (configuration not stated) [AMINOETHOXYVINYLGLYCINE] was tested, and the GI50 was inactive: > 100 µM.
With `NCc1ccc(C(=O)O)cc1` [AMINOMETHYLBENZOIC ACID] the GI50 was inactive: > 100 µM.
In the case of `CC1(C)S[C@@H]2[C@H](NC(=O)[C@H](N)c3ccccc3)C(=O)N2[C@H]1C(=O)O` [AMPICILLIN], the GI50 is reported as inactive: > 100 µM.
`c1cc2c3c(c1)c1cc4c(cc1c[n+]3CC2)OCO4` [ANHYDROLYCORINIUM CHLORIDE] was tested, and the GI50 was inactive: 5.61 µM.
`CCCCN(CC)c1nc(C)nc2c1c(C)c(C)n2-c1c(C)cc(C)cc1C` [ANTALARMIN] was tested, and the GI50 was inactive: 16.9 µM.
In the case of `O=C1c2c(O)cccc2Cc2cccc(O)c21` [ANTHRALIN], the GI50 is reported as inactive: 1.56 µM.
`CO[C@H]1Nc2c(ccc(C)c2O)C(=O)N2C=C(/C=C/C(N)=O)C[C@@H]12` [ANTHRAMYCIN METHYL ETHER] was tested, and the GI50 was active: 0.0676 µM.
With `O=C1c2cccc(O)c2C(=O)c2cccc(O)c21` [ANTHRARUFIN] the GI50 was inactive: > 100 µM.
With `NC(CCCCCP(=O)(O)O)C(=O)O` (configuration not stated) [AP-7] the GI50 was inactive: > 100 µM.
With `O=c1cc(-c2ccc(O)cc2)oc2cc(O[C@@H]3O[C@H](CO)[C@@H](O)[C@H](O)[C@H]3O)cc(O)c12` [APIGETRIN] the GI50 was inactive: 87.1 µM.
In the case of `COC1=C(Br)[C@H](O)[C@@]2(C=C1Br)CC(C(=O)NCCCOc1c(Br)cc(C(O)CNC(C)=O)cc1Br)=NO2` (some centres not stated) [APLYSINAMISINE III], the GI50 is reported as inactive: > 10 µM.
`COC1=C(Br)[C@H](O)[C@@]2(C=C1Br)CC(C(=O)NCCCCCNC(=N)N)=NO2` [APLYSINAMISINE II] was tested, and the GI50 was inactive: > 10 µM.
For `CC(C)=CCc1cc(/C=C/C(=O)O)cc(CC=C(C)C)c1O` [ARTEPILLIN], the GI50 was inactive: > 100 µM.
For `COc1cc(O)c2c(=O)cc(-c3ccc(O)cc3O)oc2c1CC=C(C)C` [ARTOCARPETIN A], the GI50 was inactive: 19.5 µM.
In the case of `COc1cc2oc(-c3ccc(O)cc3O)c(CC=C(C)C)c(=O)c2c(O)c1/C=C/C(C)C` [ARTOCARPIN], the GI50 is reported as inactive: 6.24 µM.
`c1ccc2c(Cc3c[nH]c4ccccc34)c[nH]c2c1` [ARUNDINE] was tested, and the GI50 was inactive: 15.2 µM.
`O=C1c2cccnc2-c2nccc3c2c1nc1ccccc13` [ASCIDIDEMIN] was tested, and the GI50 was active: 0.105 µM.
With `C=C1C(=O)O[C@@H]2C[C@@]3(C)[C@H](O)CCC(=C)[C@@H]3C[C@H]12` [ASPERILIN] the GI50 was inactive: 7.52 µM.
With `CC[C@@]12CCCN3CC[C@]4(c5cccc(OC)c5N(C(C)=O)[C@@H]4CC1)[C@H]32` [ASPIDOSPERMINE] the GI50 was inactive: > 100 µM.
`O=C1c2ccccc2C(=O)c2c1ccc(O)c2O` [ATHRAQUINONES A] was tested, and the GI50 was inactive: 49.9 µM.
In the case of `O=C1C=CC(=C(c2ccc(O)cc2)c2ccc(O)cc2)C=C1` [AURIN], the GI50 is reported as inactive: 15.4 µM.
With `CC(C)(O)CCc1ccc(O)c2c(=O)c3c(O)c4c(cc3oc12)O[C@H]1OC=C[C@@]41O` [AUSTOCYSTIN D] the GI50 was active: < 0.01 µM.
In the case of `COc1cc(O)c2c(=O)c(OC)c(-c3ccc(OC)c(O)c3)oc2c1` [AYANIN], the GI50 is reported as inactive: 38 µM.
For `O=C1c2ccccc2C(=O)c2c1cc(S(=O)(=O)O)c(O)c2O` [Alizarin Red S], the GI50 was inactive: > 100 µM.
With `COC(=O)[C@]12CCC(C)(C)C[C@H]1[C@H]1C(=O)C=C3[C@@]4(C)C=C(C#N)C(=O)C(C)(C)[C@@H]4CC[C@@]3(C)[C@]1(C)CC2` [BARDOXOLONE METHYL] the GI50 was active: 0.0261 µM.
With `CCCCCCCCCCCCCCCCCCOCC(O)CO` (configuration not stated) [BATILOL] the GI50 was inactive: > 25 µM.
For `CCc1oc2ccccc2c1C(=O)c1cc(Br)c(O)c(Br)c1` [BENZBROMARONE], the GI50 was inactive: 22.6 µM.
`OB1OCc2ccccc21` [BENZOXABOROLE] was tested, and the GI50 was inactive: 74.5 µM.
`CN1CCC(n2[nH]c(-c3ccccc3)c(Cc3ccccc3)c2=O)CC1` [BENZPIPERYLON] was tested, and the GI50 was inactive: > 100 µM.
In the case of `O=C(/C=C/c1ccc(O)c(O)c1)OCc1ccccc1` [BENZYL CAFFEATE], the GI50 is reported as inactive: 30.5 µM.
For `NS(=O)(=O)c1cc2c(cc1Cl)NC(Cc1ccccc1)NS2(=O)=O` (configuration not stated) [BENZYLHYDROCHLOROTHIAZIDE], the GI50 was inactive: > 100 µM.
For `CC(C)=CCC/C(C)=C/COc1c2ccoc2cc2oc(=O)ccc12` [BERGAMOTTIN], the GI50 was inactive: 33.8 µM.
`COc1c2ccoc2cc2oc(=O)ccc12` [BERGAPTEN] was tested, and the GI50 was inactive: > 100 µM.
With `CC(=O)Oc1ccc(C(c2ccc(OC(C)=O)cc2)c2ccccn2)cc1` [BISACODYL] the GI50 was inactive: 2.36 µM.
`COc1ccc2c([nH]c3c(O)c(-c4c(C)cc5c([nH]c6c(CC=C(C)C)c(OC)ccc65)c4O)c(C)cc32)c1CC=C(C)C` [BISMURRAYAFOLINE B] was tested, and the GI50 was inactive: > 100 µM.
For `O=C1c2cccc3cccc(c23)C(=O)N1CCCNCCCCNCCCNCCCN1C(=O)c2cccc3cccc(c23)C1=O` [BISNAPHTHALIMIDOPROPYL SPERMIDINE TRIHYDROBROMIDE], the GI50 was active: 0.279 µM.
In the case of `CC(C)C[C@H](NC(=O)[C@H](Cc1ccccc1)NC(=O)c1cnccn1)B(O)O` [BORTEZOMIB], the GI50 is reported as active: < 0.0138 µM.
`Cc1c(-c2ccc(-c3ccccc3F)cc2)nc2ccc(F)cc2c1C(=O)O` [BREQUINAR SODIUM] was tested, and the GI50 was inactive: 15.2 µM.
In the case of `CC(C)C[C@H]1C(=O)N2CCC[C@H]2[C@]2(O)O[C@](NC(=O)[C@@H]3C=C4c5cccc6[nH]c(Br)c(c56)C[C@H]4N(C)C3)(C(C)C)C(=O)N12` [BROMOCRIPTINE MESYLATE], the GI50 is reported as inactive: > 100 µM.
With `O=c1[nH]c(=O)n([C@H]2C[C@H](O)[C@@H](CO)O2)cc1Br` [BROXURIDINE] the GI50 was inactive: > 100 µM.
For `C[C@H](CC[C@@H](O)C(C)(C)O)[C@H]1CC[C@@]2(C)[C@@H]3CC=C4[C@@H](CC[C@H](O)C4(C)C)[C@]3(C)C(=O)C[C@]12C` [BRYODULCOSIGENIN], the GI50 was inactive: 23.6 µM.
For `CCCCCCCCCCCC1CC(=O)NCCCN(C)CCCCN(C)CCCN1C` (configuration not stated) [BUDMUNCHIAMINE A], the GI50 was inactive: 1.73 µM.
In the case of `CC(NC(C)(C)C)C(=O)c1cccc(Cl)c1` (configuration not stated) [BUPROPION HYDROCHLORIDE], the GI50 is reported as inactive: > 100 µM.
For `CS(=O)(=O)OCCCCOS(C)(=O)=O` [BUSULFAN], the GI50 was inactive: > 250 µM.
For `CCCCS(=N)(=O)CC[C@H](N)C(=O)O` (some centres not stated) [BUTHIONINE SULFOXIME], the GI50 was inactive: > 5000 µM.
In the case of `C[C@@H]1C[C@@H](O)[C@]2(O)O[C@@H]3C[C@@]4(C=O)[C@@H](CC[C@@H]5[C@@H]4CC[C@]4(C)[C@@H](C6=CC(=O)OC6)CC[C@]54O)C[C@H]3O[C@@H]2O1` [CALACTIN], the GI50 is reported as active: 0.0112 µM.
For `CCC(=C/[C@H](C)C/C=C/C(C)=C/[C@@H](C)C(=O)[C@@H](C)[C@H](O)[C@@H](C)CC)/C=C/[C@H]1CC=CC(=O)O1` [CALLYSTATIN A], the GI50 was active: < 0.0012 µM.
For `C[C@@H]1C[C@H](O)[C@]2(O)O[C@@H]3C[C@@]4(C=O)[C@@H](CC[C@@H]5[C@@H]4CC[C@]4(C)[C@@H](C6=CC(=O)OC6)CC[C@]54O)C[C@H]3O[C@@H]2O1` [CALOTROPIN], the GI50 was active: 0.0282 µM.
`O=c1[nH]c(=S)[nH]c(-c2ccccc2)c1Cc1c(O)ccc2ccccc12` [CAMBINOL] was tested, and the GI50 was inactive: 29 µM.
For `COC(COC(N)=O)C1=C(N2CC2)C(=O)C(C)=C(N2CC2)C1=O` (configuration not stated) [CARBOQUONE], the GI50 was active: 0.33 µM.
In the case of `NC(=O)CN1C=CCC(C(N)=O)=C1` [CARICOTAMIDE], the GI50 is reported as inactive: > 100 µM.
With `O=NN(CCCl)C(=O)NCCCl` [CARMUSTINE] the GI50 was inactive: 177 µM.
For `CC(C)c1cc2c(c(O)c1O)[C@@]1(C(=O)O)CCCC(C)(C)[C@@H]1CC2` [CARNOSIC ACID], the GI50 was inactive: 33.4 µM.
For `CN(C)CCOC(=O)COc1ccc(Cl)cc1` [CENTROPHENOXINE HYDROCHLORIDE], the GI50 was inactive: > 100 µM.
With `CN1C(=O)C(=O)c2cc3c(c4c2c1cc1ccccc14)OCO3` [CEPHARADIONE A] the GI50 was inactive: 20.7 µM.
With `COc1c(CC(C)O)c2c3c(CC(C)O)c(OC)c(=O)c4c(O)cc5c(c6c(cc(O)c(c1=O)c62)OCO5)c43` (configuration not stated) [CERCOSPORIN] the GI50 was inactive: 1.82 µM.
With `O=C(/C=C/c1ccccc1)c1ccccc1` [CHALCONE] the GI50 was inactive: > 10 µM.
For `C[C@H](CCC(=O)O)[C@H]1CC[C@H]2[C@@H]3[C@H](O)C[C@@H]4C[C@H](O)CC[C@]4(C)[C@H]3CC[C@]12C` [CHENODIOL], the GI50 was inactive: 51.9 µM.
With `CC1=CC(=O)c2ccc(C)cc2C1=O` [CHIMAPHILIN] the GI50 was inactive: 18.2 µM.
With `Cc1ccc2nc3sc(=O)sc3nc2c1` [CHINOMETHIONAT] the GI50 was inactive: 15 µM.
In the case of `O=C(O)CCCc1ccc(N(CCCl)CCCl)cc1` [CHLORAMBUCIL], the GI50 is reported as inactive: 205 µM.
In the case of `CCN(CC)CCCC(C)Nc1ccnc2cc(Cl)ccc12` (configuration not stated) [CHLOROQUINE PHOSPHATE], the GI50 is reported as inactive: 33.9 µM.
For `COC1C(O)CC(OC2CC(Oc3cc4cc5c(c(O)c4c(O)c3C)C(=O)[C@@H](OC3CC(OC4CC(OC6CC(C)(O)C(OC(C)=O)C(C)O6)C(O)C(C)O4)C(O)C(C)O3)[C@H]([C@H](OC)C(=O)[C@@H](O)[C@@H](C)O)C5)OC(C)C2OC(C)=O)OC1C` (some centres not stated) [CHROMOMYCIN], the GI50 was active: 0.00365 µM.
In the case of `CC(C)=CC1C(C(=O)O)C1(C)C` (configuration not stated) [CHRYSANTHEMIC ACID], the GI50 is reported as inactive: > 750 µM.
`CC1=C2C(=CO[C@H](C)[C@H]2C)C(O)=C(C(=O)O)C1=O` [CITRININ] was tested, and the GI50 was inactive: 20.4 µM.
